{"source": "the RNAGym collection of RNA variant scans (doi:10.1073/pnas.2313332121)", "parents": {"B1": {"name": "TPR 5TU (parent)", "chain": "GGAUCUUCUCGAUCUAACAAAAAAGACAAAUCUGCCACAAAGCUUGAGAGCAUCUUCGGAUGCAGAGGCGGCAGCCUUCGGUGGCGCGAUAGCGCCAACGUUCUCAACUAUGACACGCAAAACGCGUGCUCCGUUGAAUGGAGUUUAUCAUG"}}, "note": "Variants at the floor of the assay are shown more often than the library holds them.", "data": [{"variants_of": "B1", "assay": "polymerase ribozyme fitness, log enrichment relative to wild type (log ratio); higher = more active; in vitro selection for triplet polymerase activity", "procedure,_shortened": "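After PCR construction and transcription, each subunit's mutant library from a heterodimeric triplet polymerase ribozyme was annealed with a biotinylated primer, the partner subunit and triplets. Incubation was frozen, at −7 °C, and extended constructs were gel-excised, bound to streptavidin beads and amplified by RT-PCR, in one selection round done in triplicate. Fitness is the logarithm of a genotype's enrichment divided by that of the wild type, from inverse-variance-weighted replicate averages of Illumina-sequenced inputs and outputs. The base of the logarithm is 2, and genotypes needed ≥10 input reads and ≥1 read per output.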", "values": [{"variant": "C8U C18G A49C C54G G74A U78C G92A A142U", "polymerase ribozyme fitness (log ratio)": "≤ -4.2"}, {"variant": "C8U C35A C72U C76U G88A G92U A121U", "polymerase ribozyme fitness (log ratio)": "≤ -4.2"}, {"variant": "C8U C36G A49U U55A C95A A120C A138G G143U", "polymerase ribozyme fitness (log ratio)": "≤ -4.2"}, {"variant": "C8U C38A A52C U55A G68A G83U A138G", "polymerase ribozyme fitness (log ratio)": "≤ -4.2"}, {"variant": "C8U C38G U56G G88U A89U C93U U130G", "polymerase ribozyme fitness (log ratio)": "≤ -4.2"}, {"variant": "C8U C43U U44A G92U A113U U148C", "polymerase ribozyme fitness (log ratio)": "≤ -4.2"}, {"variant": "C8U C51U G84C", "polymerase ribozyme fitness (log ratio)": "≤ -4.2"}, {"variant": "C8U C54G", "polymerase ribozyme fitness (log ratio)": "≤ -4.2"}, {"variant": "C8U C54U U56C C85A G92C", "polymerase ribozyme fitness (log ratio)": "≤ -4.2"}, {"variant": "C8U C75A G86U A91U A122G G136A", "polymerase ribozyme fitness (log ratio)": "≤ -4.2"}, {"variant": "C8U C85A C99A C129G U134G A138U", "polymerase ribozyme fitness (log ratio)": "≤ -4.2"}, {"variant": "C8U C87U", "polymerase ribozyme fitness (log ratio)": -2.59}, {"variant": "C8U G46U G59A", "polymerase ribozyme fitness (log ratio)": "≤ -4.2"}, {"variant": "C8U G48C G58U A66C G81A U151A", "polymerase ribozyme fitness (log ratio)": "≤ -4.2"}, {"variant": "C8U G50U C85U U127A", "polymerase ribozyme fitness (log ratio)": "≤ -4.2"}, {"variant": "C8U G58U A60G A137C", "polymerase ribozyme fitness (log ratio)": "≤ -4.2"}, {"variant": "C8U G59A C116U", "polymerase ribozyme fitness (log ratio)": -3.27}, {"variant": "C8U G59A G68C", "polymerase ribozyme fitness (log ratio)": "≤ -4.2"}, {"variant": "C8U G59C", "polymerase ribozyme fitness (log ratio)": -2.99}, {"variant": "C8U G62A A97U A106U C116G G124C", "polymerase ribozyme fitness (log ratio)": "≤ -4.2"}, {"variant": "C8U G74A C87A A115C U144C", "polymerase ribozyme fitness (log ratio)": "≤ -4.2"}, {"variant": "C8U G81U C95U", "polymerase ribozyme fitness (log ratio)": "≤ -4.2"}, {"variant": "C8U G83C", "polymerase ribozyme fitness (log ratio)": -2.8}, {"variant": "C8U G83C C125U", "polymerase ribozyme fitness (log ratio)": "≤ -4.2"}, {"variant": "C8U G86A C87A A89G C114U", "polymerase ribozyme fitness (log ratio)": "≤ -4.2"}, {"variant": "C8U G88C", "polymerase ribozyme fitness (log ratio)": "≤ -4.2"}, {"variant": "C8U U9G G70A C76A C87G A89C", "polymerase ribozyme fitness (log ratio)": "≤ -4.2"}, {"variant": "C8U U13G A40C A64C C69G", "polymerase ribozyme fitness (log ratio)": "≤ -4.2"}, {"variant": "C8U U31G", "polymerase ribozyme fitness (log ratio)": -3.21}, {"variant": "C8U U44A A52U C75U C85U C95U U104C A138G G140U", "polymerase ribozyme fitness (log ratio)": "≤ -4.2"}, {"variant": "C8U U44G U55A C79U G88A A110U", "polymerase ribozyme fitness (log ratio)": "≤ -4.2"}, {"variant": "C8U U53A C57G G88A C95G G126U C131U U146C", "polymerase ribozyme fitness (log ratio)": "≤ -4.2"}, {"variant": "C8U U53G U56G G94C A98G U101A", "polymerase ribozyme fitness (log ratio)": "≤ -4.2"}, {"variant": "C8U U55A G71A G81C C95G C125U", "polymerase ribozyme fitness (log ratio)": "≤ -4.2"}, {"variant": "C8U U56A A64U A91U G128U A150C", "polymerase ribozyme fitness (log ratio)": "≤ -4.2"}, {"variant": "C8U U78G C85U C105U A113C A137C", "polymerase ribozyme fitness (log ratio)": "≤ -4.2"}, {"variant": "C8U U148A", "polymerase ribozyme fitness (log ratio)": "≤ -4.2"}, {"variant": "U9A A12C A20G C43G A73U C87A C103G U127G C149A", "polymerase ribozyme fitness (log ratio)": "≤ -4.2"}, {"variant": "U9A A16C C18G A19G U33C C43U A47C U61G A64C C96G U104G A119G A120G", "polymerase ribozyme fitness (log ratio)": "≤ -4.2"}, {"variant": "U9A A16G C54U C75U C76A A120U", "polymerase ribozyme fitness (log ratio)": "≤ -4.2"}, {"variant": "U9A A17U C35A G58A G80U A91G A150U", "polymerase ribozyme fitness (log ratio)": "≤ -4.2"}, {"variant": "U9A A19C A41C C57U C96U", "polymerase ribozyme fitness (log ratio)": "≤ -4.2"}, {"variant": "U9A A19U A26U C27G C36G U90G G124C", "polymerase ribozyme fitness (log ratio)": "≤ -4.2"}, {"variant": "U9A A20C A23U U31G A47C G50U G58A C85U A91C", "polymerase ribozyme fitness (log ratio)": "≤ -4.2"}, {"variant": "U9A A21U U33C G46A C57U A91C G94A", "polymerase ribozyme fitness (log ratio)": "≤ -4.2"}, {"variant": "U9A A23C U31G A73U C93G A106G G117A G133A A150G", "polymerase ribozyme fitness (log ratio)": "≤ -4.2"}, {"variant": "U9A A23U G48C C79G C93G", "polymerase ribozyme fitness (log ratio)": "≤ -4.2"}, {"variant": "U9A A26G", "polymerase ribozyme fitness (log ratio)": "≤ -4.2"}, {"variant": "U9A A26G A66C A122U A137U G143C U145A", "polymerase ribozyme fitness (log ratio)": "≤ -4.2"}, {"variant": "U9A A26U C36U A91G A120C G124A", "polymerase ribozyme fitness (log ratio)": "≤ -4.2"}, {"variant": "U9A A26U G46C G48A A60G C69A C72A G80C", "polymerase ribozyme fitness (log ratio)": "≤ -4.2"}, {"variant": "U9A A30G A37G C51A U90A A121C U144A", "polymerase ribozyme fitness (log ratio)": "≤ -4.2"}, {"variant": "U9A A39C U53G G92A G112C A113G C149G", "polymerase ribozyme fitness (log ratio)": "≤ -4.2"}, {"variant": "U9A A39U G48A G84U C99A G117U", "polymerase ribozyme fitness (log ratio)": "≤ -4.2"}, {"variant": "U9A A47C", "polymerase ribozyme fitness (log ratio)": -4.13}, {"variant": "U9A A66G C75A G84A U146G", "polymerase ribozyme fitness (log ratio)": "≤ -4.2"}, {"variant": "U9A C10G U31A C38G U90A G141C", "polymerase ribozyme fitness (log ratio)": "≤ -4.2"}, {"variant": "U9A C14A C38A C125G", "polymerase ribozyme fitness (log ratio)": "≤ -4.2"}, {"variant": "U9A C14U G83A U135G", "polymerase ribozyme fitness (log ratio)": "≤ -4.2"}, {"variant": "U9A C32A U55G G88U U109A", "polymerase ribozyme fitness (log ratio)": "≤ -4.2"}, {"variant": "U9A C36A C72G G92A C129A", "polymerase ribozyme fitness (log ratio)": "≤ -4.2"}, {"variant": "U9A C51A U55A G83C", "polymerase ribozyme fitness (log ratio)": "≤ -4.2"}, {"variant": "U9A C54A", "polymerase ribozyme fitness (log ratio)": "≤ -4.2"}, {"variant": "U9A C76U C85U", "polymerase ribozyme fitness (log ratio)": "≤ -4.2"}, {"variant": "U9A C76U C85U C132U G133C", "polymerase ribozyme fitness (log ratio)": "≤ -4.2"}, {"variant": "U9A C87G", "polymerase ribozyme fitness (log ratio)": "≤ -4.2"}, {"variant": "U9A G11A C27U G84U U148A", "polymerase ribozyme fitness (log ratio)": "≤ -4.2"}, {"variant": "U9A G34A C57A C85A A91U", "polymerase ribozyme fitness (log ratio)": "≤ -4.2"}, {"variant": "U9A G42A G59A A60G A66G C103G C105G A106C G152A", "polymerase ribozyme fitness (log ratio)": "≤ -4.2"}, {"variant": "U9A G92A C93G U146A A150G", "polymerase ribozyme fitness (log ratio)": "≤ -4.2"}, {"variant": "U9A G141C", "polymerase ribozyme fitness (log ratio)": -3.23}, {"variant": "U9A U13C A17U U31C A52C G83U C103G C114U C118A", "polymerase ribozyme fitness (log ratio)": "≤ -4.2"}, {"variant": "U9A U13C C87U U139G U148G", "polymerase ribozyme fitness (log ratio)": "≤ -4.2"}, {"variant": "U9A U13G C32G C51G G70U U127G", "polymerase ribozyme fitness (log ratio)": "≤ -4.2"}, {"variant": "U9A U15C C35U G71A C72U U77G C87A A119U G124C", "polymerase ribozyme fitness (log ratio)": "≤ -4.2"}, {"variant": "U9A U15G A41U G50U C69G G70A C108G", "polymerase ribozyme fitness (log ratio)": "≤ -4.2"}, {"variant": "U9A U31G U53G G88A G126U A150C", "polymerase ribozyme fitness (log ratio)": "≤ -4.2"}, {"variant": "U9A U33C A49C C75U G80C U139G U146G A147G", "polymerase ribozyme fitness (log ratio)": "≤ -4.2"}, {"variant": "U9A U77G U78C G92U A142G", "polymerase ribozyme fitness (log ratio)": "≤ -4.2"}, {"variant": "U9C A12G A21U G42U C51G U53A C96A", "polymerase ribozyme fitness (log ratio)": "≤ -4.2"}, {"variant": "U9C A12U C27G G48A G74A G88A", "polymerase ribozyme fitness (log ratio)": "≤ -4.2"}, {"variant": "U9C A16C U44G G50A C75A G81A", "polymerase ribozyme fitness (log ratio)": "≤ -4.2"}, {"variant": "U9C A16U A19U U31A C35U A49U", "polymerase ribozyme fitness (log ratio)": "≤ -4.2"}, {"variant": "U9C A16U A21G G70C G92U G143U U145G", "polymerase ribozyme fitness (log ratio)": "≤ -4.2"}]}]}
